# Test results as given in PubChem BioAssay AID1508624 (National Center for Advancing Translational Sciences (NCATS), 2021).
# About 120 (0.25%) of roughly 48,000 compounds were called active. Inconclusive results (about 4%) are left out. The call rests on the fitted dose curve; in most records, active means well fitted activation curve with a large enough effect; inconclusive means small, poorly fitted or top-dose-only effect, or another doubt; inactive means no such curve, though single readings can be large or run the other way. The list shows a part of the results.
# Assay: Primary qHTS for Identification of Small Molecule Activators of Huntingtin-Antisense Promoter Activity; further: nearly all actives have a fitted effect of over 55% in size
# Conditions: HEK293 HTT-AS promoter firefly luciferase reporter, 24 h; series mostly up to 57.5 µM; activity change, positive = activation: at the top concentration
# Method in brief: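 Luminescence was read after Dual-Glo reagent and a 10 min room-temperature incubation. Values were normalized to vehicle (0% activity) and zero RLU (-100% activity). Reporter HEK293 cells had been exposed to compounds (up to 57.5 uM final) for 24 h.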
row,Structure (SMILES),"activity change, positive = activation"
1,COc1ccccc1CCNS(=O)(=O)c1ccc(N2CCCCS2(=O)=O)cc1,inactive: -17%
2,COc1ccc(NC(=O)CCc2nnc3n(CC(C)C)c(=O)c4ccccc4n23)cc1,inactive: -10.7%
3,CCc1ccccc1NC(=O)C1CCCN(c2ncnc3onc(C)c23)C1 (stereo unspecified),inactive: -18.6%
4,COc1ccc(CNC(=O)c2ccc(CS(=O)Cc3ccccc3Cl)o2)cc1 (stereo unspecified),inactive: -7.88%
5,CC12CCC(CC1)C(C)(C)O2,inactive: -0.333%
6,Cc1ccc(C2c3[nH]c4ccccc4c3CCN2C(=O)CCC2CCCC2)cc1 (stereo unspecified),inactive: -34.8%
7,Cc1ccc(-n2nc(C(=O)N3CCN(c4cc(Cl)ccc4C)CC3)c3c4ccccc4n(C)c3c2=O)cc1,inactive: 3.91%
8,Cc1ccc(Cl)cc1-n1ncc2c(Nc3cccc(C)c3C)ncnc21,inactive: -18.3%
9,O=C(c1ccc(CSc2nc3ccncc3n2Cc2ccccc2)cc1)N1CCCCCC1,inactive: 1.65%
10,Cc1ccc(NC(=O)Cn2ccn(-c3ccc(F)c(F)c3)c(=O)c2=O)cc1C,inactive: -4.57%
11,CCc1nn2c(=O)cc(COC(=O)c3ccccc3NC(=O)C3CCCCC3)nc2s1,inactive: 5.02%
12,CCc1ccccc1NC(=O)CCc1c(C)nn(-c2ccc(N3CCOCC3)nn2)c1C,inactive: 13.1%
13,CC(=O)Nc1ncc([N+](=O)[O-])s1,inactive: -0.859%
14,CCc1ccc(CNCc2c(C(=O)O)n(Cc3ccc(F)cc3Cl)c3cc(OC)ccc23)cc1,inactive: -62.3%
15,O=C(c1ccc(F)cc1)n1nc(-c2ccccc2)nc1NCc1ccc(F)cc1,inactive: 7.73%
16,COc1cc2ccccc2cc1C(=O)N1CCN(c2nc3ccc(F)cc3s2)CC1,inactive: -42%
17,COc1cc(CCC(=O)NCc2ccc3c(c2)CCN3C(=O)c2ccc(F)cc2)cc(OC)c1OC,inactive: -5.31%
18,CCOC(=O)c1c(SCC(=O)Nc2cc(Cl)cc(Cl)c2)nc(=O)[nH]c1C,inactive: -9.29%
19,CCCCNC(=O)C1CCC(CNS(=O)(=O)c2ccc(NC(C)=O)cc2)CC1 (stereo unspecified),inactive: -8.21%
20,COc1ccc(-c2nc3c(c(SCC(=O)N(C)c4ccccc4)n2)Cc2cc(C)ccc2O3)cc1,inactive: 15%
21,COc1ccc2ncc3c(-c4ccc(C)c(C)c4)nn(CC(=O)NC4CCCC4)c3c2c1,inactive: -9.78%

row,Structure (SMILES),"activity change, positive = activation"
1,Cc1ccc2nc(NCc3ccc(F)cc3)c3nncn3c2c1,inactive: -3.46%
2,Cc1nc(-c2ccc(S(=O)(=O)NCc3ccc(N(C)C)cc3)cc2)co1,inactive: -36.1%
3,Cc1cccc(-n2ncc3c(N4CCN(c5ccccc5)CC4)ncnc32)c1,inactive: -21.1%
4,CCN(CC)c1ccc(NC(=O)Cn2nc(C)n3cccc3c2=O)c(C)c1,inactive: -6.81%
5,CCc1ccc(NC(=O)Cn2cc(S(=O)(=O)N3CCCC3)c(S(=O)(=O)N3CCCC3)c2)cc1,"inactive: 1.06% [at 11.5 µM, percent change from vehicle, -100% = no light]"
6,CC(C)NC(=O)CCN1C(=O)c2ccccc2Sc2ncccc21,inactive: -8.35%
7,O=C(NC1CC(=O)N(c2ccc(F)cc2)C1)C1CC1 (stereo unspecified),inactive: -13.3%
8,COc1ccc2oc(=O)c(-c3nc(-c4cccs4)no3)cc2c1,inactive: -16.7%
9,Cc1ccc(NC(=O)Cn2nnc(C(=O)NCc3ccc4c(c3)OCO4)c2N)cc1Cl,inactive: -20.5%
10,CSc1nc2sc3c(c2c(=O)n1-c1ccccc1)CCC(C(C)(C)C)C3 (stereo unspecified),inactive: -5.12%
11,Cc1cc(C)cc(NC(=O)CCCc2nc(-c3ccccc3Cl)no2)c1,inactive: -12.4%
12,COc1ccc(Cn2c(=O)[nH]c3cc(C(=O)N4CCN(c5cc(Cl)ccc5C)CC4)ccc3c2=O)cc1,inactive: -11.7%
13,COc1ccc(-c2nn(-c3cccc(F)c3)c3c2cnc2cc(OC)c(OC)cc23)cc1,inactive: -22.8%
14,COc1ccc2[nH]cc(S(=O)(=O)c3ccc(C)c(C)c3)c(=O)c2c1,inactive: -34.7%
15,O=C(CCCCn1c(=O)c2ccccc2n(CC(=O)Nc2cccc(F)c2)c1=O)NCCc1ccccc1,inactive: -3.4%
16,CCN1/C(=C/C=C/c2sc3ccccc3[n+]2CC)Sc2ccccc21,"inactive: -65.9% [at 25.1 µM, percent change from vehicle, -100% = no light]"
17,Cc1ccc(NC(=O)Cn2c(=O)n(Cc3nc(-c4ccccc4)no3)c(=O)c3cc4c(cc32)OCO4)c(C)c1,inactive: -9.24%
18,COc1ccc(CCNC(=O)CSc2n[nH]c(-c3ccccc3Cl)n2)cc1OC,inactive: -18.4%
19,COc1ccc(Cl)cc1NC(=O)CSC1=Nc2ccccc2C2=NC(CC(=O)NCc3cccs3)C(=O)N12 (stereo unspecified),inactive: -17.9%
20,O=C(NCc1ccccc1)c1cnc(N2CCCCC2)c2ccccc12,inactive: 7.3%
21,COc1cccc(Nc2nc3ccc(C)cc3nc2-n2nc(C)cc2C)c1,inactive: 6.22%

row,Structure (SMILES),"activity change, positive = activation"
1,COc1ccc(Nc2c(-c3ccccn3)nc3ccc(Cl)cn23)cc1,inactive: -3.29%
2,Cc1ccc(NC(=O)C2=CC(c3ccc4c(c3)OCO4)=NS(=O)(=O)N2C)cc1,inactive: -9.73%
3,CCc1ccc(-n2c(=O)c3cccnc3n2CC(=O)NCc2ccc(C)cc2)cc1,inactive: -5.31%
4,CCOC(=O)c1cc2c(=O)n3ccccc3nc2n(Cc2ccco2)c1=NC(=O)c1ccc(OCC)cc1,inactive: 0%
5,Cn1c(=O)n(CCCc2ccccc2)c(=O)c2c1nc1n2CCN1c1ccc(F)cc1,inactive: -23%
6,CCOCC(O)COc1ccc(NC(=O)CC[S+](C)C)cc1 (stereo unspecified),inactive
7,CCCCOC(=O)c1ccc(NC(=O)c2cnc3ccc(C)cn3c2=O)cc1,inactive: 6.14%
8,CCn1c(=O)cc(OCC(=O)N2CCN(c3ccc(F)cc3)CC2)c2ccccc21,inactive: -18.4%
9,CCN(c1cccc(C)c1)c1ncnc2c1cnn2-c1cccc(Cl)c1,inactive: 8.11%
10,Cc1nn(C(=O)c2ccc(Br)cc2)c(C)c1Sc1ccccc1,inactive: -4.99%
11,COc1cc(OC)c(N(C)C(=O)c2sc3nc4n(c(=O)c3c2C)CCCC4)cc1Cl,inactive: -10%
12,Cn1cc(S(=O)(=O)c2ccccc2)c(=O)c2cc(F)c(N3CCCCCC3)cc21,inactive: -24%
13,Cc1cc(C)cc(-n2c(SCC(=O)Nc3ccc4c(c3)OCCO4)nc3c([nH]c4ccccc43)c2=O)c1,inactive: -13.4%
14,COc1ccc(CNC(=O)CCc2nc(-c3ccc(C)cc3)no2)c(OC)c1,inactive: -31.9%
15,O=C(Nc1ccc2nc(SCC(=O)N3CCc4ccccc43)sc2c1)c1ccccc1F,inactive: -4.76%
16,CC1=C(c2ccc(C)c(C)c2)S(=O)(=O)N=C1N1CCC(C(=O)NC(C)Cc2ccco2)CC1 (stereo unspecified),inactive: -18.6%
17,COc1ccc(C)cc1-n1cnc2cc(C(=O)NC3CCCC3)ccc21,inactive: -18%
18,COc1cc(C(=O)Nc2nonc2-c2ccc(C)c(C)c2)cc(OC)c1OC,inactive: -20.5%
19,Cc1ccc(NC(=O)c2ccc(NC(=O)N3CCSc4ncccc43)cc2)c(C)c1,inactive: 3.69%
